DBAASP

Experiments:
Assay in all cases: ≥ marks a high value that may be exact or a test limit, other limits are often not marked
[1] = test system: Escherichia coli DH5alpha
[2] = test system: Pseudomonas aeruginosa NBRC 13275
[3] = test system: Staphylococcus aureus NBRC 13276

MIC [1]: ≥ 200 µM | MIC [2]: ≥ 200 µM | MIC [3]: ≥ 400 µM
SMILES: CC[C@H](C)[C@H](NC(=O)CNC(C)=O)C(=O)NCC(=O)N[C@@H](CCCCN)C(=O)N[C@@H](Cc1ccccc1)C(=O)N[C@@H](CC(C)C)C(=O)N[C@@H](Cc1cnc[nH]1)C(=O)N[C@@H](CO)C(=O)N[C@@H](C)C(=O)N[C@@H](CCCCN)C(=O)N[C@@H](CCCCN)C(=O)N[C@@H](Cc1ccccc1)C(N)=O [GIGKFLHSAKKF]
